# Reference: PubChem BioAssay AID651820 (National Center for Advancing Translational Sciences (NCATS), 2012)
# The whole screen tested about 340,000 compounds, of which about 12,000 (3.5%) were called active. Inconclusive means that the source gave no clear call. Such entries were picked first, then a sample of the others. Calls follow the shape of the dose curve; as a rule, active = well fitted inhibition curve with a large enough effect; inconclusive = small, poorly fitted or top-dose-only effect, or another doubt; inactive = no such curve, though single readings can be large or run the other way. Potencies of inconclusive entries are left out as doubtful fits.
# Assay: qHTS Assay for Inhibitors of Hepatitis C Virus (HCV)
# Details: Huh7.5.1 HCVcc-Cre (HCVcc is cell-culture hepatitis C virus) infection, luciferase reporter, 44 h; activity change, negative = inhibition: at 41.8 µM (top of the series) unless noted
# Outline: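 Cells seeded at 1,000/well and cultured 4 h, then compounds added followed by HCVcc-Cre virus (~0.5 moi). After 44 h further culture, luciferase substrate was added, plates held 15 min at room temperature, and luminescence read for 15 sec.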
# % is scaled to controls: 0 for no effect and ±100 for the full control effect; potency is read from the fitted curve at half-maximal effect; tags tell the direction and shape of the fitted curve.
Compound,"activity change, negative = inhibition",Potency
CC1CCCCC12NC(=O)N(CC(=O)N1CCN(c3ncccn3)CC1)C2=O (stereo not given),inactive: 2.11%,
CCCc1[nH]n(-c2nc3ccccc3s2)c(=O)c1C=NCC(C)C,,"inconclusive [inhibitor, single point]"
COCc1[nH]nc2c1C(c1c(F)cccc1Cl)C(C#N)=C(N)O2 (stereo not given),inactive: 1.53%,
C/C(=N\NC(=O)c1ccccc1)c1ccc(NC(=O)c2cccs2)cc1,,"inconclusive [inhibitor, single point]"
COCCN(Cc1ccccc1)C(=O)c1cccc(S(=O)(=O)N2CCN(c3ccc(F)cc3)CC2)c1,,"inconclusive [inhibitor, single point]"
Cc1oc(-c2cccs2)nc1CS(=O)CC(=O)NCc1ccc2c(c1)OCO2 (stereo not given),,"inconclusive [inhibitor, partial curve]"
CN(c1cc(=O)n2ccccc2n1)C1CCCCC1,inactive: 7.42%,
O=C(/C=C/c1ccco1)NC1CCCC1,inactive: 17.1%,
COc1ccc(C(=O)Nc2ccc3nc(C)c(C)nc3c2)cc1,,"inconclusive [inhibitor, partial curve]"
COC(=O)c1ccc(OCC(O)CN2CCc3cc(OC)c(OC)cc3C2c2ccccc2)cc1 (stereo not given),,active: 7.94 µM
O=c1[nH]c(CCl)nc2cc(-c3ccc(F)cc3)sc12,,"inconclusive [inhibitor, single point]"
Cc1nc2c(cc(Oc3ccc(S(=O)(=O)N4CCOCC4)cn3)c3ccsc32)s1,,"inconclusive [inhibitor, full curve, poor fit]"
CC(=O)c1ccc(N2CCN(S(=O)(=O)c3ccc(-c4cnc(C5CC5)o4)cc3)CC2)cc1,inactive: 7.37%,
COc1cc(C(=O)Nc2ccc(N3CCOCC3)cc2)ccc1OCc1c(C)noc1C,,"inconclusive [inhibitor, partial curve]"
COC(=O)c1ccc(/C=C/C(=O)c2ccc(OC)cc2)cc1,,"inconclusive [inhibitor, single point]"
Cc1ccc(C(=O)Nc2cc(Cl)ccc2-n2cncn2)o1,,"inconclusive [inhibitor, partial curve]"
COc1ccc(C2(c3ccc(OC)cc3)NC(=O)N(CC(=O)Nc3ccccc3C)C2=O)cc1,,"inconclusive [inhibitor, single point]"
CCOC(=O)Cc1nnc(-c2ccccc2)o1,inactive: 12.9%,
O=C(c1ccccc1)c1ccc(OCC(O)CN2CCCCC2)cc1 (stereo not given),,"inconclusive [inhibitor, single point]"
O=C(NCc1ccco1)c1cc(-c2cccnc2)nc2ccc(Cl)cc12,,"inconclusive [inhibitor, single point]"
COc1ccc(/C=N/Nc2nc(N3CCCC3)nc(N3CCCC3)n2)cc1O,,"inconclusive [inhibitor, partial curve, poor fit]"
CCC(CO)Oc1cc(NCc2ccc(F)cc2)c2ncn(C(C)C)c2c1 (stereo not given),,"inconclusive [inhibitor, single point]"
COc1ccc(C(C)C)cc1S(=O)(=O)N1CCN(C)CC1,inactive: 23.1%,

Compound,"activity change, negative = inhibition",Potency
CCOC(=O)c1sc(NC(=O)Nc2ccc(Cl)cc2)cc1C,,"inconclusive [inhibitor, partial curve]"
COc1ccnc(Oc2ccccc2)c1C(=O)N/C=N/OCc1ccccc1,inactive: -3.97%,
N#CC1=C(SCC(=O)Nc2nccs2)NC(=O)CC1c1ccccc1 (stereo not given),inactive: 13.4%,
CC1=CC(=C(C#N)C#N)C=C(C)N1CCN1CCN(C(=O)Nc2ccc(Cl)c(Cl)c2)CC1,,"inconclusive [inhibitor, partial curve]"
COc1cc(CN2CCCC(C(=O)c3ccc(SC)cc3)C2)cc(Cl)c1O (stereo not given),,"inconclusive [inhibitor, single point]"
CCc1c(C)sc(NC(=O)C2CC(c3c(F)cccc3Cl)=NO2)c1C#N (stereo not given),inactive: -29.5%,
Cn1cc(CCNCc2cn[nH]c2-c2ccc(-c3ccccc3)cc2)cn1,inactive: -24.6%,
CN1C(=O)C(=Cc2sc(=O)n(-c3ccccc3)c2N(C)C)C(=O)N(C)C1=O,,"inconclusive [inhibitor, partial curve]"
COc1ccc(NC(=O)c2cc([N+](=O)[O-])ccc2N2CCCCC2)cc1OC,,active: 25.1 µM
Clc1ccc(-n2nnnc2-c2cnc3ccc(Cl)cc3c2-c2ccccc2)cc1,,"inconclusive [inhibitor, single point]"
CCCCCCC(=O)Nc1c2c(nc3ccccc13)N(C)CC2,inactive: -13.5%,
CC(OC(=O)c1ccc(NC(=O)CC#N)cc1)C(=O)NCCC1=CCCCC1 (stereo not given),inactive: -21.9%,
CCOc1ccccc1OCCCCCc1c(C)n[nH]c1C,,"inconclusive [inhibitor, partial curve]"
COc1ccc(C=C(C#N)c2ccc(OC)cc2)cc1,,"inconclusive [inhibitor, partial curve]"
CCC(C)c1ccccc1NC(=O)COC(=O)c1ccc2[nH]c3c(c2c1)CCCC3 (stereo not given),,"inconclusive [inhibitor, full curve]"
Cc1sc(NC(=O)c2ccco2)c(CN2CCN(c3ccccc3)CC2)c1C,,"inconclusive [inhibitor, partial curve]"
O=C(Nc1cccc(S(=O)(=O)N2CCCCC2)c1)[C@@H]1CCCN1S(=O)(=O)c1ccccc1C(F)(F)F,,active: 14.1 µM
CN1C[C@@H]2C(c3ccc(Cl)nc3)C3(c4ccc(C#N)cc4)CC2(C3)[C@H]1c1ccccc1 (stereo not given in full),,"inconclusive [inhibitor, full curve]"
CC1CCCCN1CCNC(=O)C1CC(=O)N(c2ccc(F)c(Cl)c2)C1 (stereo not given),,"inconclusive [inhibitor, partial curve]"
CCCCC(=O)Nc1sc2c(c1C(N)=O)CCC2,inactive: -28.1%,
CCC(CO)NCc1cc(OC)c(OCC(=O)NCCc2ccccc2)cc1Br (stereo not given),,"inconclusive [inhibitor, full curve, poor fit]"
COc1ccc(/C(O)=C/c2nc3ccc(C(=O)NCCc4cccc(C)c4)cc3[nH]c2=O)cc1OC,,"inconclusive [inhibitor, single point]"
